“And” between values parts separate entries of the source, which are not always exact repeats. Identical values can stand only once. Like-named read-outs stand apart in the source and are kept apart here.
System: HFrEF patients with the ADRB1 Arg389Arg genotype at high risk for recurrent AF
Settings: for Events/pts (%) / Events/pts, time to any AF/AFL or ACM / Hazard ratio (95% C.I.): U.S. randomized patients; for HR (95% CI), time to first event of AF/AFL/ACM: bucindolol vs. metoprolol
[1] = Serbia (N = 21), bucindolol vs metoprolol
[2] = Totals, 255 CYP2D6-genotyped patients
[3] = U.S. (N = 127), bucindolol vs metoprolol
[4] = entire cohort, 2D6 Poor Metabolizers (PMs)
[5] = entire cohort, 2D6 Poor Metabolizers (PMs), listed as Bucindolol
[6] = entire cohort, DTRI > −1 days in LVEF ≥ 0.39
[7] = entire cohort, Heart rate >74 bpm
[8] = entire cohort, Heart rate ≤ 74 bpm
[9] = entire cohort, Ischemic etiology
[10] = entire cohort, LVEF ≥ 0.39, AF Dx to randomization > 321 days
[11] = entire cohort, LVEF ≥ 0.39, AF Dx to randomization ≤ 321 days
[12] = entire cohort, NT-proBNP ≥ 1131 pg/ml
[13] = entire cohort, Non-ischemic etiology
[14] = entire cohort, Norepinephrine ≥ 600 pg/ml
[15] = entire cohort, Persistent AF at Randomization
[16] = entire cohort, Previous catheter ablation
[17] = entire cohort, SR/Paroxysmal AF at Randomization

CC(C)(Cc1c[nH]c2ccccc12)NCC(O)COc1ccccc1C#N (centres unmarked) [bucindolol, 2-(3-(1-(1H-indol-3-yl)-2-methylpropan-2-ylamino)-2-hydroxypropoxy)benzonitrile]
Time to AF/AFL/ACM, Non-stratified HR (95% CI) [1]: 0.59 | Time to AF/AFL/ACM, Stratified HR (95% CI) [1]: 0.42 | 1EP Events [2]: 71 | 1EP Events (rate) [2]: (56%) | Hazard Ratio Unadjusted, primary endpoint (1EP) (Totals, 255 CYP2D6-genotyped patients, bucindolol vs metoprolol): 0.98 | Failed ECV at day 0 (U.S.): 9% | Time to AF/AFL/ACM, Non-stratified HR (95% CI) [3]: 0.77 | Time to AF/AFL/ACM, Stratified HR (95% CI) [3]: 0.70 | hazard ratio, Phase 2 (time to any AF/AFL or ACM) (U.S. (n = 127), covariate adjusted): 0.70 | Hazard ratio, time to first AF/AFL/ACM, bucindolol vs. metoprolol (U.S. patients N=127, covariate adjusted): 0.70 | Hazard ratio, Phase 2 primary endpoint, bucindolol vs. metoprolol (U.S. patients, LVEF <0.30): 0.74 | Hazard ratio, Phase 2 primary endpoint, bucindolol vs. metoprolol (U.S. patients, LVEF ≤0.35): 0.75 | Hazard ratio, Phase 2 primary endpoint, bucindolol vs. metoprolol (U.S. patients, NYHA Class III): 0.81 | Hazard ratio, time to first AF/AFL/ACM, bucindolol vs. metoprolol (U.S. patients, unadjusted): 0.77 | Events/pts (%) (LVEF 0.30-0.39 (mean 0.332)): (56%) | Events/pts, time to any AF/AFL or ACM (LVEF 0.30-0.39 (mean 0.332)): 10/18 | Hazard ratio (95% C.I.) (LVEF 0.30-0.39, bucindolol vs metoprolol): 0.86 | Events/pts (%) (LVEF 0.40-0.49 (mean 0.443)): (62.5%) | Events/pts, time to any AF/AFL or ACM (LVEF 0.40-0.49 (mean 0.443)): 15/24 | Hazard ratio (95% C.I.) (LVEF 0.40-0.49, bucindolol vs metoprolol): 0.51 | Events/pts (%) (LVEF <0.30 (mean 0.229)): (41%) | Events/pts, time to any AF/AFL or ACM (LVEF <0.30 (mean 0.229)): 7/17 | Hazard ratio (95% C.I.) (LVEF <0.30, bucindolol vs metoprolol): 0.74 | Events/pts (%) (NYHA Class I): (33%) | Events/pts, time to any AF/AFL or ACM (NYHA Class I): 4/12 | Hazard ratio (95% C.I.) (NYHA Class I, bucindolol vs metoprolol): 0.55 | Events/pts (%) (NYHA Class II): (64%) | Events/pts, time to any AF/AFL or ACM (NYHA Class II): 23/36 | Hazard ratio (95% C.I.) (NYHA Class II, bucindolol vs metoprolol): 0.82 | Events/pts (%) (NYHA Class III): (50%) | Events/pts, time to any AF/AFL or ACM (NYHA Class III): 6/12 | Hazard ratio (95% C.I.) (NYHA Class III, bucindolol vs metoprolol): 0.81 | Hazard ratio, Phase 2 primary endpoint, bucindolol vs. metoprolol (all 2D6 genotypes other than PMs (IMs+EMs+UMs)): 0.92 | HR (95% CI), time to first event of AF/AFL/ACM (AF12/HF12/DTRI-2, HFlrEF LVEF < 0.40): 0.69 | HR (95% CI), time to first event of AF/AFL/ACM (AF12/HF12/DTRI-2, HFmrEF 0.40 ≤ LVEF < 0.50): 0.42 (0.21, 0.86) | HR (95% CI), time to first event of AF/AFL/ACM (AF12/HF12/DTRI-2, HFrEF LVEF < 0.50): 0.54 | HR (95% CI), time to first event of AF/AFL/ACM (AF12/HF12, HFlrEF LVEF < 0.40): 0.74 | HR (95% CI), time to first event of AF/AFL/ACM (AF12/HF12, HFmrEF 0.40 ≤ LVEF < 0.50): 0.61 (0.34, 1.10) | HR (95% CI), time to first event of AF/AFL/ACM (AF12/HF12, HFrEF LVEF < 0.50): 0.68 | HR (95% CI), time to first event of AF/AFL/ACM (All Patients, HFlrEF LVEF < 0.40): 1.03 | HR (95% CI), time to first event of AF/AFL/ACM (All Patients, HFmrEF 0.40 ≤ LVEF < 0.50): 0.78 (0.45, 1.33) | HR (95% CI), time to first event of AF/AFL/ACM (All Patients, HFrEF LVEF < 0.50): 0.92 | Hazard ratio, time to first AF/AFL/ACM, bucindolol vs. metoprolol (entire cohort N=267, covariate adjusted (four randomization strata), 24 weeks): 1.01 | Hazard ratio, time to first AF/AFL/ACM, bucindolol vs. metoprolol (entire cohort with Hungary removed): 0.82 | Hazard ratio (unadjusted), Phase 2 primary endpoint, bucindolol vs. metoprolol [4]: 2.19 and > 2.0 | Primary endpoint event rate [4]: 67% | Primary endpoint event rate, events/patients [4]: 8/12 | Hazard ratio (unadjusted), Phase 2 primary endpoint, bucindolol vs. metoprolol [5]: 2.19 | Primary endpoint event rate [5]: (67%) | Hazard ratio (unadjusted), Phase 2 primary endpoint, bucindolol vs. metoprolol (entire cohort, AF at Rand): 0.91 | Primary endpoint event rate (entire cohort, AF at Rand): (74%) | Primary endpoint event rate, events/patients (entire cohort, AF at Rand): 49/66 | Hazard ratio (unadjusted), Phase 2 primary endpoint, bucindolol vs. metoprolol (entire cohort, Age > 66 years): 0.75 | Primary endpoint event rate (entire cohort, Age > 66 years): (48%) | Primary endpoint event rate, events/patients (entire cohort, Age > 66 years): 34/71 | Hazard ratio (unadjusted), Phase 2 primary endpoint, bucindolol vs. metoprolol (entire cohort, All Subjects): 0.96 | Primary endpoint event rate (entire cohort, All Subjects): 54% | Primary endpoint event rate, events/patients (entire cohort, All Subjects): 73/134 | Primary endpoint event rate (entire cohort, All Subjects, listed as Bucindolol): (54%) | Hazard ratio (unadjusted), Phase 2 primary endpoint, bucindolol vs. metoprolol [6]: 0.71 | Primary endpoint event rate [6]: (50%) | Primary endpoint event rate, events/patients [6]: 14/28 | Hazard ratio (unadjusted), Phase 2 primary endpoint, bucindolol vs. metoprolol (entire cohort, Gender female): 1.22 | Primary endpoint event rate (entire cohort, Gender female): (57%) | Primary endpoint event rate, events/patients (entire cohort, Gender female): 13/23 | Hazard ratio (unadjusted), Phase 2 primary endpoint, bucindolol vs. metoprolol [7]: 0.89 | Primary endpoint event rate [7]: (64%) | Primary endpoint event rate, events/patients [7]: 41/64 | Hazard ratio (unadjusted), Phase 2 primary endpoint, bucindolol vs. metoprolol [8]: 1.12 | Primary endpoint event rate [8]: (46%) | Primary endpoint event rate, events/patients [8]: 32/70 | Hazard ratio (unadjusted), Phase 2 primary endpoint, bucindolol vs. metoprolol [9]: 0.79 | Primary endpoint event rate [9]: (43%) | Primary endpoint event rate, events/patients [9]: 18/42 | Hazard ratio (unadjusted), Phase 2 primary endpoint, bucindolol vs. metoprolol (entire cohort, LVEF < 0.39): 1.02 | Primary endpoint event rate (entire cohort, LVEF < 0.39): (55%) | Primary endpoint event rate, events/patients (entire cohort, LVEF < 0.39): 38/69 | Hazard ratio (unadjusted), Phase 2 primary endpoint, bucindolol vs. metoprolol (entire cohort, LVEF ≥ 0.39): 0.89 | Primary endpoint event rate (entire cohort, LVEF ≥ 0.39): (54%) | Primary endpoint event rate, events/patients (entire cohort, LVEF ≥ 0.39): 35/65 | Hazard ratio (unadjusted), Phase 2 primary endpoint, bucindolol vs. metoprolol [10]: 1.20 | Primary endpoint event rate [10]: (57%) | Primary endpoint event rate, events/patients [10]: 17/30 | Hazard ratio (unadjusted), Phase 2 primary endpoint, bucindolol vs. metoprolol [11]: 0.65 | Primary endpoint event rate [11]: (51%) | Primary endpoint event rate, events/patients [11]: 18/35 | Hazard ratio, Phase 2 primary endpoint, bucindolol vs. metoprolol (entire cohort, LVEF ≥0.39, DTRI quartile Q1): 1.52 | Hazard ratio, Phase 2 primary endpoint, bucindolol vs. metoprolol (entire cohort, LVEF ≥0.39, DTRI quartile Q2): 0.63 | Hazard ratio (unadjusted), Phase 2 primary endpoint, bucindolol vs. metoprolol [12]: 0.87 | Primary endpoint event rate [12]: (63%) | Primary endpoint event rate, events/patients [12]: 26/41 | Hazard ratio (unadjusted), Phase 2 primary endpoint, bucindolol vs. metoprolol (entire cohort, NYHA I): 0.72 | Primary endpoint event rate (entire cohort, NYHA I): (38%) | Primary endpoint event rate, events/patients (entire cohort, NYHA I): 15/40 | Hazard ratio (unadjusted), Phase 2 primary endpoint, bucindolol vs. metoprolol (entire cohort, NYHA II/III): 1.06 | Primary endpoint event rate (entire cohort, NYHA II/III): (62%) | Primary endpoint event rate, events/patients (entire cohort, NYHA II/III): 58/94 | Hazard ratio (unadjusted), Phase 2 primary endpoint, bucindolol vs. metoprolol (entire cohort, No previous ECV): 0.82 | Primary endpoint event rate (entire cohort, No previous ECV): (47%) | Primary endpoint event rate, events/patients (entire cohort, No previous ECV): 32/68 | Hazard ratio (unadjusted), Phase 2 primary endpoint, bucindolol vs. metoprolol [13]: 1.02 | Primary endpoint event rate [13]: (60%) | Primary endpoint event rate, events/patients [13]: 55/92 | Hazard ratio (unadjusted), Phase 2 primary endpoint, bucindolol vs. metoprolol [14]: 0.81 | Primary endpoint event rate [14]: (51%) | Primary endpoint event rate, events/patients [14]: 35/68 | Hazard ratio (unadjusted), Phase 2 primary endpoint, bucindolol vs. metoprolol [15]: 0.85 | Primary endpoint event rate [15]: (71%) | Primary endpoint event rate, events/patients [15]: 32/45 | Hazard ratio (unadjusted), Phase 2 primary endpoint, bucindolol vs. metoprolol [16]: 0.73 | Primary endpoint event rate [16]: (48%) | Primary endpoint event rate, events/patients [16]: 12/25 | Hazard ratio (unadjusted), Phase 2 primary endpoint, bucindolol vs. metoprolol (entire cohort, SBP < 123 mm Hg): 1.18 | Primary endpoint event rate (entire cohort, SBP < 123 mm Hg): (66%) | Primary endpoint event rate, events/patients (entire cohort, SBP < 123 mm Hg): 40/61 | Hazard ratio (unadjusted), Phase 2 primary endpoint, bucindolol vs. metoprolol (entire cohort, SBP > 123 mm Hg): 0.82 | Primary endpoint event rate (entire cohort, SBP > 123 mm Hg): (45% | Primary endpoint event rate, events/patients (entire cohort, SBP > 123 mm Hg): 33/73 | Hazard ratio (unadjusted), Phase 2 primary endpoint, bucindolol vs. metoprolol (entire cohort, SR at FU Start): 1.00 | Primary endpoint event rate (entire cohort, SR at FU Start): (52%) | Primary endpoint event rate, events/patients (entire cohort, SR at FU Start): 64/122 | Hazard ratio (unadjusted), Phase 2 primary endpoint, bucindolol vs. metoprolol (entire cohort, SR at Rand): 1.13 | Primary endpoint event rate (entire cohort, SR at Rand): (35%) | Primary endpoint event rate, events/patients (entire cohort, SR at Rand): 24/68 | Hazard ratio (unadjusted), Phase 2 primary endpoint, bucindolol vs. metoprolol [17]: 1.09 | Primary endpoint event rate [17]: (46%) | Primary endpoint event rate, events/patients [17]: 41/89 | AF/AFL events among primary endpoint events (entire cohort, number): 64 | Deaths among primary endpoint events (entire cohort, number): no deaths | ECV failures among primary endpoint events (entire cohort, number): 9 | Primary endpoint events (entire cohort, number of events): Seventy-three | Hazard ratio, time to first AF/AFL/ACM, bucindolol vs. metoprolol (entire cohort, stratified analysis including adjustment for previous use of class III anti-arrhythmic drugs): 0.92 | Hazard ratio, AF/AFL/ACM endpoint, bucindolol vs. metoprolol (interim analysis (230 randomized patients), USA): 0.73 | Primary endpoint event rate (overall, CYP2D6 genotyped patients): 56%
